According to PubChem BioAssay AID2202238 (Ras Initiative Chemistry Research Team, Frederick National …, 2025):
This is one part of the list. Further columns of the screen follow, without active or inactive calls.

Target: GTPase KRas (Homo sapiens) (UniProt P01116)
Assay: Cysteine mutants labelled by reactive fragments (mass read-out) (AID 2202238)
Set-up: protein at 5 µM with 500 µM competing thiol for 1.5 h
Conditions: KRAS G12D cysteine mutants, disulfide tethering, MALDI-TOF labeling, stronger effect = higher value, fragment at 500 µM
[1] = measured here: G60C mutant labeling
[2] = measured here: G75C mutant labeling
[3] = measured here: H94C mutant labeling
[4] = measured here: I36C mutant labeling
[5] = measured here: L120C mutant labeling
[6] = measured here: M67C mutant labeling
[7] = measured here: M72C mutant labeling
[8] = measured here: N26C mutant labeling
[9] = measured here: N86C mutant labeling
[10] = measured here: P121C mutant labeling
[11] = measured here: S122C mutant labeling
[12] = measured here: S136C mutant labeling

Sequence of UniProt P01116 (P01116 whole entry, looked up, the tested form may be a part): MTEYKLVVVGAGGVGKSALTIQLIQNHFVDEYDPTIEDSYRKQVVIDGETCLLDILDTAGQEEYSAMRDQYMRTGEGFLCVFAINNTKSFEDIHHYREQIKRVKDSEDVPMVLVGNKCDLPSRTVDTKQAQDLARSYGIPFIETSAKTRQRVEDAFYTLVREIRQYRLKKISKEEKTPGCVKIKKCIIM

Row | Compound | percent labeling [1] [%] | percent labeling [2] [%] | percent labeling [3] [%] | percent labeling [4] [%] | percent labeling [5] [%] | percent labeling [6] [%] | percent labeling [7] [%] | percent labeling [8] [%] | percent labeling [9] [%] | percent labeling [10] [%] | percent labeling [11] [%] | percent labeling [12] [%]
1 | O=C(NCCS)c1cnn(-c2cncc3nnnn23)c1 | 9.2 | 0 | 8.2 | 6.1 | 10.8 | 8.6 | 0 | 17.4 | 6.7 | 7.5 | 8.6 | 16.4
2 | Cc1nnc(SCC2CCCN2C(=O)CCS)s1 (stereo not given) |  | 10.9 | 38.9 | 38.4 | 34.6 | 41.1 | 23.8 |  | 33.7 | 30.3 | 32 | 57
3 | Cn1nc(CNC(=O)CCS)cc1C(N)=O |  | 10.8 | 24.2 | 38.3 | 24.1 | 29.6 | 16.9 |  | 16.5 | 31.7 | 36.9 | 44.9
4 | CC(C)(C)OCC(=O)NC(C)(C)C(=O)NCCS | 15.5 | 5.8 | 26.7 | 19.1 | 40.7 | 24 | 12.8 | 26.5 | 20.9 | 26.4 | 31.3 | 34.4
5 | Cn1nc(CCNC(=O)CCS)nc1-c1ccccc1 |  | 9.8 | 37.9 | 40.4 | 30.4 | 45.8 | 19.8 |  | 24.2 | 34 | 33.9 | 55.3
6 | O=C(CC1(c2ccc(C(F)(F)F)cc2)CC1)NCCS | 50.2 | 21.1 | 39.4 | 15.7 | 26.7 | 21 | 28.3 | 29.2 | 17.8 | 23 | 15.9 | 23.2
7 | O=C(CCS)N1CC(c2cc3n(n2)CCCC3)C1 |  | 17.2 | 28.2 | 35.5 | 26.1 | 44 | 27.6 |  | 16.7 | 31.4 | 32.2 | 54.9
8 | CN1CCCN(C(=O)CCS)c2ccccc21 |  | 13.2 | 39.4 | 40 | 20.2 | 37.1 | 38.3 |  | 28.2 | 27.2 | 29.5 | 51.2
9 | CN1CCC(c2ccccc2)CC1C(=O)NCCS (stereo not given) | 60 | 27.6 | 40 | 38.8 | 45.2 | 60.8 | 34.8 | 52 | 31.6 | 42.7 | 30.6 | 62.7
10 | O=C(CCS)N(Cc1ccc(Cl)cc1)c1ccccc1 |  | 30.2 | 37.1 | 29.4 | 28.7 | 24 | 41.3 |  | 32.1 | 28.7 | 14.4 | 37.7
11 | COc1ccc2c(c1)C1(CC1)CN(C(=O)CCS)C2 |  | 11.3 | 17.1 | 18.1 | 26 | 21.8 | 29.6 |  | 12.4 | 21.8 | 17.5 | 34.1
12 | COCc1ccc(C(=O)NCCS)cc1OC | 31.5 | 14.3 | 26 | 22.7 | 38.7 | 30.7 | 44.3 | 40.1 | 19.3 | 24.3 | 25.9 | 60.3
13 | O=C(NCCS)c1c[nH]c(=O)cc1C(F)(F)F | 28.5 | 16.1 | 29.7 | 26.9 | 34.8 | 29.8 | 25.5 | 39.1 | 42.6 | 33.3 | 35.7 | 40.8
14 | CC(Cn1ncc2ccccc21)C(=O)NCCS (stereo not given) | 39.6 | 14.9 | 34.8 | 32.1 | 38.1 | 42.1 | 42.8 | 34.8 | 18.1 | 34 | 32.3 | 46.2
15 | O=C(NCCS)c1cc(Br)cc2[nH]c(=O)[nH]c12 | 27.2 | 29.7 | 23.1 | 16.5 | 25.2 | 17.4 | 46.3 | 41.8 | 13.9 | 14.9 | 9.2 | 28.9
16 | CC(C)n1cc2cc(NC(=O)CCS)ccc2n1 |  | 11.7 | 15.7 | 26.3 | 12.3 | 23 | 29.7 |  | 13.3 | 26.8 | 21.3 | 37.9
17 | O=C(CCS)NC1(c2ncon2)CCOCC1 |  | 0 | 11.5 | 12.3 | 7.5 | 11.7 | 5.5 |  | 3.7 | 18.2 | 18.8 | 22.8
18 | O=C(CCS)N1CCC(O)(C(F)(F)F)CC1 |  | 16.4 | 27.6 | 33.8 | 40.1 | 31 | 31.5 |  | 36.6 | 36.9 | 37.8 | 54.6
19 | Cc1cc(CN2CCN(C(=O)CCS)CC2)on1 |  | 11.1 | 31.4 | 37.1 | 39.5 | 36.8 | 19.2 |  | 27 | 33 | 37.1 | 57.4
20 | O=C(NCCS)c1ccc(-c2noc(C(F)F)n2)cc1 | 12.1 | 10.4 | 11.5 | 9.9 | 11.5 | 9.1 | 31 | 24 | 11.9 | 10.1 | 8 | 12.7
21 | Cc1nc2ccc(NC(=O)CCS)cc2c(=O)[nH]1 |  | 13.5 | 13.3 | 23.1 | 13.7 | 23.8 | 26.7 |  | 20.9 | 16.3 | 10.8 | 32.6
22 | Cc1cc(C)c(CNC(=O)CCS)c(=O)[nH]1 |  | 16.5 | 30.8 | 41.6 | 32.4 | 32 | 28.6 |  | 29.1 | 31.4 | 40.6 | 58.6
23 | Cc1cc(=O)oc2cc(OCC(=O)NCCS)ccc12 | 21.3 | 3.5 | 12 | 13.7 | 18.9 | 12.2 | 28.9 | 35.8 | 14.5 | 16.2 | 10.7 | 22.6
24 | CN(Cc1ccc2n[nH]nc2c1)C(=O)CCS |  | 27.4 | 34.4 | 38 | 31.8 | 46.3 | 34.9 |  | 29.1 | 38.6 | 39.2 | 57.7

Row | Compound | percent labeling [1] [%] | percent labeling [2] [%] | percent labeling [3] [%] | percent labeling [4] [%] | percent labeling [5] [%] | percent labeling [6] [%] | percent labeling [7] [%] | percent labeling [8] [%] | percent labeling [9] [%] | percent labeling [10] [%] | percent labeling [11] [%] | percent labeling [12] [%]
25 | O=C(Cc1coc2ccc3ccccc3c12)NCCS | 40.4 | 17.5 | 19.3 | 12 | 22.2 | 18.8 | 34.9 | 28.8 | 14.8 | 16.4 | 12.4 | 17.8
26 | O=C(CCS)NCC1CC2(CC2)S(=O)(=O)N1 (stereo not given) |  | 11.8 | 25.3 | 25.1 | 25.5 | 26.2 | 11 |  | 11.9 | 30.6 | 33 | 42.6
27 | CN1CCCC(c2cccc(C(=O)NCCS)c2)C1 (stereo not given) | 49.7 | 35 | 52.1 | 46.1 | 49.7 | 55.2 | 69.4 | 63.6 | 41.3 | 35.3 | 35.5 | 64.5
28 | O=C(CCS)N1CCc2ccccc2C1c1nc2ccccc2[nH]1 (stereo not given) |  | 24.2 | 19.1 | 23.6 | 19.7 | 35.1 | 22.2 |  | 20.8 | 16.7 | 10.9 | 49.2
29 | O=C(Cc1ccc(C2CCCCC2)cc1)NCCS | 42 | 19.3 | 35.6 | 8.3 | 29.2 | 11.1 | 30.6 | 23.6 | 12 | 18.6 | 9.5 | 14.4
30 | O=C(CCS)Nc1cccc(OCc2cccc(F)c2)c1 |  | 17.2 | 32.5 | 20.2 | 14.4 | 24.7 | 36.4 |  | 19.9 | 16.4 | 11.9 | 38.1
31 | CC(C)(C)OC(=O)N1CC2(CCN2C(=O)CCS)C1 |  | 6.1 | 18.8 | 17.4 | 16.7 | 17.8 | 12.5 |  | 8.6 | 20.9 | 22.6 | 30.1
32 | COc1ccc(S(C)(=O)=O)cc1C(=O)NCCS | 35.8 | 23.9 | 39.3 | 30 | 49.4 | 40.1 | 43.1 | 45.4 | 36.3 | 35.8 | 39.3 | 63.5
33 | O=C(CCS)NCC(O)c1cc(Cl)c2c(c1)OCCO2 (stereo not given) |  | 15.3 | 36.8 | 43.2 | 32.3 | 44 | 44.2 |  | 28.5 | 39.2 | 32.1 | 53.3
34 | CC(=O)Nc1cc(NC(=O)CCS)ccc1F |  | 12.9 | 26.4 | 37.6 | 33 | 25 | 28.3 |  | 20.4 | 29.6 | 32.8 | 51.3
35 | CC(C)(C)C1CCC(O)(CNC(=O)CCS)CC1 (stereo not given) |  | 13.5 | 26.2 | 24.9 | 32.4 | 21.1 | 25.1 |  | 11.3 | 24.4 | 21.3 | 52.1
36 | Cc1nn(C)c(-n2cncn2)c1C(=O)NCCS | 22.7 | 8.3 | 30.3 | 22.6 | 32.6 | 27.7 | 11 | 31.9 | 18.9 | 29.7 | 29 | 44.1
37 | Cc1cccn2cc(-c3cccc(NC(=O)CCS)c3)nc12 |  | 9.6 | 17.2 | 22.3 | 17.7 | 19.1 | 38.7 |  | 9.8 | 12.5 | 12.8 | 29.1
38 | O=C(CCNC(=O)c1cccs1)NCCS | 26.3 | 14 | 30.6 | 39.5 | 35.7 | 36.7 | 27 | 34.1 | 22.6 | 41.1 | 32.6 | 49.1
39 | O=C(Cn1cnc2sccc2c1=O)NCCS | 38.6 | 16.5 | 33.2 | 31.2 | 53.1 | 33 | 34.3 | 38.8 | 35.9 | 34.3 | 35.5 | 53.4
40 | CCn1cnnc1-c1ccc(C(=O)NCCS)cc1 | 30.1 | 13.6 | 31.9 | 27.1 | 40.2 | 29.8 | 31.6 | 38.5 | 25.7 | 27.4 | 27 | 42.4
41 | CN(Cc1ccccc1Oc1ccc(Cl)c(Cl)c1)C(=O)CCS |  | 18.3 | 35.5 | 22.4 | 21.3 | 22.7 | 50.2 |  | 23 | 21.9 | 10.7 | 54.5
42 | O=C(NCCS)C1CCCCN1C1CCCC1 (stereo not given) | 36.3 | 15 | 39.1 | 38.9 | 35.5 | 45.9 | 23.2 | 37.5 | 23.8 | 33.2 | 29 | 52.1
43 | CC1(C)C=Cc2cccc(NC(=O)CCS)c2O1 |  | 19.7 | 39.5 | 20.2 | 15.1 | 25.1 | 43.6 |  | 20 | 23.6 | 21.5 | 39.6
44 | O=C(CCS)NCC1CCN(c2ccncc2)CC1 |  | 11.3 | 35.5 | 58.1 | 34.7 | 58.6 | 23.8 |  | 22.4 | 33.7 | 27.7 | 58.8
45 | CN(c1ccccc1)c1nc(C(=O)NCCS)cs1 | 25.8 | 13.9 | 20.1 | 10.6 | 18.5 | 12.6 | 43.6 | 29.1 | 11.7 | 14.9 | 11.8 | 26
46 | O=C(CCS)NCCN1CCN(C(=O)C2CCC2)CC1 |  | 7.6 | 31.9 | 40.1 | 30.5 | 39.5 | 15.6 |  | 19 | 34.3 | 28 | 44.9
47 | Cc1cc(NC(=O)CCS)nn1-c1cccc(Cl)c1 |  | 15.7 | 21.2 | 17.2 | 21.8 | 21.9 | 40.6 |  | 15.6 | 18 | 16.4 | 29.7
